System: Zika (ZIKV strain MR766)
Experiment: microbe, parasite or virus in culture
Details: Huh-7, 48 h, read-out: IC50 Zika

SMILES: COc1ccc(C(=O)Nc2sc3c(c2C(=O)O)CCC(C)(C)C3)cc1OC [Compound #18]
- IC50: 3000 nM

From patent US20210038566A1, “USE OF MODULATORS OF NEET PROTEINS FOR THE TREATMENT OF INFECTION” (ENYO PHARMA, priority 2018, published 2021)
